The source gives no read counts; variants with many changes may rest on few reads.
B1: OR4K15 (parent)
chain: GUUAACGGUCAUAGGCCAUGGAAACUAGGAGCACCAUUUCGCUGCCAGUGAAGAAAUGAACAAAGAAAAUCUGGGCCAGGCAGGCAUCAAAAGAAAUAGUCUUGCGCUCAACCAGAAAGUCUGUAAUCAUUUUAAGGGUA

Variants of: B1
Experiment: self-cleavage, relative activity (ratio to wild type); higher = more cleavage; in vitro, sequencing; the parent is a self-cleaving ribozyme

Variant	self-cleavage
U39C A89G A90U U108A	0.01
U39C A47U U122C	0.48
U39A A54U A94G U108A	0.01
U38C A60G A68U C121A	2.82
U38C A78G U87A U130C	0.07
U37C U49A A69G A82G A89G A129U	0.28
U39A U87C A94G	1.53
U38C U39C A55G U133C	1.53
U38C U43C A67G A111G U131C	0.01
U38C A78G A82G A92G U103C	0.34
U38A A66G A89G	1.63
U38C A51G U70G	0.84
U37C U100C A116U	1.15
U39C A69G U87C	1.3
U39C A78U U127C	0.14
U38C G41A A55G	1.41
U37C C46U A60G U108C	0.01
U38C A68G C105A	0.03
U39C A110G U131C	0.16
U38C A54U A111G A114U U127C U130C	0
U39A U43A U57A A89G A111G	0.04
U38C A63G G106A	0.02
U38C A60G U70C A125G	0.34
U39C A82G U127A A129G G138A	0.31

Variant	self-cleavage
U38C A64G U102A U132C	0.33
U39A A86G U131C	1.34
U38C A54G U102C	1.96
U37C A92U A95G	1.99
U37C A92G A94G	1.26
U37G A62G A110G	0.27
U39A A82U A129G	0.16
U38C A89C U102C	2.48
U38C A52G A55G A69U A90G	0.97
U37C U57C G79U	0.15
U38C A60G A78G	0.26
U39A A69G G84A A90G U100C	0.32
U38C A67G U133C	1.92
U38C A91G A96U	1.73
U39C A86G A89G A126G U127C	0
U37C G75U A90G A117U A126G	0.05
U39C A55G U102C	2.45
U39C A91G U122A	0.79
U38A G74C A114G	0.05
U39C A47G U102C U130C U133C	2.03
U39C A82G U103C A110U	1.05
U37C U102A U127A	1.09
U39C A91G A111G	0.03
U38A A52G U97C U122G	1.42

Variant	self-cleavage
U39A A69G A140G	0.35
U38C G44A G79A A89G A118G	0.06
U37C U39C A56G A86G	2.34
U39C A60U A126G C128A U130C	1
U39C G58A A110G	0.07
U38A U97C U139G	1.36
U38A U43C U70C A94G A114G	0.04
U39A U43C A66G A90G	1.29
U39C U43G U87G A114G	0.25
U39A G75C A94G U132A	0.1
U37C U103A U122A	0.74
U38C U49C G104U	0.02
U38C A52G A56G U97A A114U	0.12
U38C A89G A98U	2.66
U37C A89G U120C	0.57
U38C U43A A78G	0.38
U39C U57C A78C U130C	0.2
U39A A62G A89U	1.84
U39A A47G A91C G93U U102A U130C	0.08
U39A G44A U127C	0.2
U39C A66U A116G U122C	0.38
U38A A78U A96G U103C A111G A126G U133C	0
U39C A55G A78G	0.22
U38C A47G G74A U130C	0.23

Variant	self-cleavage
U38C U43A A89G A91U	1.98
U38A A55G U108C	0.04
U39C A51U A86G	2.28
U38A U72C A94G	0.42
U38A A78U G106U A110G A140G	0.01
U37C U87C A134G	1.26
U37C U49C A51U U57C A63U C85U A96G U122A	0.14
U39C A56G C109U U133C	0.48
U38C A66G A68U A90G U100A	0.41
U37C A95G A135G	1.4
U38A A51G A59G U108A C128U U132C	0.03
U39C A59G A66G	2.09
U38C A96U U100A	0.33
U38C A51G A95G	1.61
U38C A62G C101U A126G	0.35
U38C U39A A51G A90G	0.36
U39A A51U A69G U87G	0.09
U39C A51U A52G A89U	0.32
U38C U57G A67G G73U	0.09
U38C A54G A66U A126G	1.21
U38C U57C A114U A117U A125G	0.02
U37C U43A U122C	1.03
U39C A78G A125U	0.38
U38C A56G U130A	0.33

Variant	self-cleavage
U38C U103C A118G U127C	0.12
U39C A66G A134G	0.72
U38C G41C A118G	0.89
U39C A52G A91G	0.92
U38C U43G A82U	0.14
U38C A114U A116G	0.03
U39A A95G C112U	0.03
U38C U100C A140G	1.71
U38C A51G U132C	1
U39C A78G U130C	0.17
U39C U72A U127A	0.36
U38C A95G U108C	0.02
U37C A92G U131C	1.18
U39C C46U A56G A66G	1.74
U38C A56G C61U A134G	1.26
U39C A52G A69G G104A C109A G136A A140G	0
U38C A67U U70C	0.92
U38C G79A A118U A129U	0.09
U37C U43C A56U	2.11
U38C A64G A96G U127C	1.1
U38C C45U A64G A89U A125G	0.72
U39C U49A U70C	1.33
U39C A66U U72C A86G A92G	0.18
U38A U43A U108C A117G	0

Variant	self-cleavage
U38C U57C A116G A134U	0.65
U39C A56G U108A	0.01
U39A U103C A118G A125U	0.58
U39C A62G A96G	1.72
U38A U39C A62G A94U U108C	0.01
U38C G48U U108C	0.01
U39C A67U A118U	1.79
U37C U43A U108C	0.01
U39C A47U A64G A129C	0.7
U39C A78U U100C	0.81
U38C U39A A52U C76G	0.06
U39C A92G A129G U132C	0.88
U38C U43C U102C G123A	2.59
U38C G41A U43C A60G A96G U132C	1.12
U38C U87C U108C A116G	0
U37C G79A U102C A126G	0.08
U38C C45U A51U	1.57
U39A U57C U97A G138C	1.21
U38A A67G A140C	1.7
U38C U87C A95G G138C	1.51
U37C A110G A126G	0.1
U39A A52G A64G A94G A116U U122A	0.48
U38C A96G U120C	0.94
U38C A60U U132C	1.09

Variant	self-cleavage
U38C A62G A92G A118G	1.76
U39C A66C A82U	0.17
U39C A98G U130C A134G	0.4
U37G A55G A62G U127C	1.65
U38C A60G U103G A116G	0.01
U39C A68U A95G U132C G138A	1.95
U38A A60G A95G U100C	0.76
U38C A67U A111G U122C	0.06
U39A C46A A59G	0.52
U38C U87C U124C	0.99
U38A A118G A125G	0.13
U37C G44U A55G U70C A78G	0.3
U38C U72A U124A	0.19
U38C C45A A52G U100C	1.29
U38C A55G U122C	0.99
U38A A68G A89G A91G	1.25
U39C A67G G119A	2.36
U39C A69G C128U U130C	0.98
U39A A51G A91G U132C	0.4
U39C A69G A82G	0.64
U39C U49C A68G	1.57
U39A G50A A95C	1.21
U38C G75U A111G	0.03

— the RNAGym collection of RNA variant scans (doi:10.7554/elife.90254)
